Results from patent US20240076343A1 (CEPHALON, published 2024).

B1: 1H3-hIgG1-L6-hIL-2 (D20M/R38E) (other)
heavy: EVQLVESGGGLVQPGRSLKLSCAVSGFTFSDYAMAWVRQAPKKGLEWVATISYDGSRTYYRDSVKGRFTISRDNAKITLYLQMDSLRSEDTATYYCARHGSGYFDYWGQGVMVTVSS[not shown - about 450 residues with a human IgG1 Fc and changes]
light: DTVLTQSPALAVSPGERVTISCRASESVRTGVHWYQQKPGQQPKLLIYGASNLESGVPARFSGSGSGTDFTLTIDPVEADDTATYFCQQSWNDPFTFGSGTKLEIKRTVAAPSVFIFPPSDEQLKSGTASVVCLLNNFYPREAKVQWKVDNALQSGNSQESVTEQDSKDSTYSLSSTLTLSKADYEKHKVYACEVTHQGLSSPVTKSFNRGEC
B2: 1H3-hIgG1-L6-hIL-2 (D20I/R38E) (other)
heavy: EVQLVESGGGLVQPGRSLKLSCAVSGFTFSDYAMAWVRQAPKKGLEWVATISYDGSRTYYRDSVKGRFTISRDNAKITLYLQMDSLRSEDTATYYCARHGSGYFDYWGQGVMVTVSS[not shown - about 450 residues with a human IgG1 Fc and changes]
light: B1 light
B3: 1H3-hIgG1-L6-hIL-2 (D20V/R38E) (other)
heavy: EVQLVESGGGLVQPGRSLKLSCAVSGFTFSDYAMAWVRQAPKKGLEWVATISYDGSRTYYRDSVKGRFTISRDNAKITLYLQMDSLRSEDTATYYCARHGSGYFDYWGQGVMVTVSS[not shown - about 450 residues with a human IgG1 Fc and changes]
light: B1 light
B4: 1H3-hIgG1-L6-hIL-2 (D20N/R38E) (other)
heavy: EVQLVESGGGLVQPGRSLKLSCAVSGFTFSDYAMAWVRQAPKKGLEWVATISYDGSRTYYRDSVKGRFTISRDNAKITLYLQMDSLRSEDTATYYCARHGSGYFDYWGQGVMVTVSS[not shown - about 450 residues with a human IgG1 Fc and changes]
light: B1 light
B5: 1H3-hIgG1-L6-hIL-2 (D20G/R38E) (other)
heavy: EVQLVESGGGLVQPGRSLKLSCAVSGFTFSDYAMAWVRQAPKKGLEWVATISYDGSRTYYRDSVKGRFTISRDNAKITLYLQMDSLRSEDTATYYCARHGSGYFDYWGQGVMVTVSS[not shown - about 450 residues with a human IgG1 Fc and changes]
light: B1 light
B6: 1H3-hIgG1-L6-hIL-2 (D20T/R38E) (other)
heavy: EVQLVESGGGLVQPGRSLKLSCAVSGFTFSDYAMAWVRQAPKKGLEWVATISYDGSRTYYRDSVKGRFTISRDNAKITLYLQMDSLRSEDTATYYCARHGSGYFDYWGQGVMVTVSS[not shown - about 450 residues with a human IgG1 Fc and changes]
light: B1 light
B7: 1H3-hIgG1-L6-hIL-2 (D20E/R38E) (other)
heavy: EVQLVESGGGLVQPGRSLKLSCAVSGFTFSDYAMAWVRQAPKKGLEWVATISYDGSRTYYRDSVKGRFTISRDNAKITLYLQMDSLRSEDTATYYCARHGSGYFDYWGQGVMVTVSS[not shown - about 450 residues with a human IgG1 Fc and changes]
light: B1 light
B8: 1H3-hIgG1-L6-hIL-2 (D20L/R38E) (other)
heavy: EVQLVESGGGLVQPGRSLKLSCAVSGFTFSDYAMAWVRQAPKKGLEWVATISYDGSRTYYRDSVKGRFTISRDNAKITLYLQMDSLRSEDTATYYCARHGSGYFDYWGQGVMVTVSS[not shown - about 450 residues with a human IgG1 Fc and changes]
light: B1 light
B9: 1H3-hIgG1-L6-hIL-2 (D20F/R38E) (other)
heavy: EVQLVESGGGLVQPGRSLKLSCAVSGFTFSDYAMAWVRQAPKKGLEWVATISYDGSRTYYRDSVKGRFTISRDNAKITLYLQMDSLRSEDTATYYCARHGSGYFDYWGQGVMVTVSS[not shown - about 450 residues with a human IgG1 Fc and changes]
light: B1 light
B10: 1H3-hIgG1-L6-hIL-2 (D20P/R38E) (other)
heavy: EVQLVESGGGLVQPGRSLKLSCAVSGFTFSDYAMAWVRQAPKKGLEWVATISYDGSRTYYRDSVKGRFTISRDNAKITLYLQMDSLRSEDTATYYCARHGSGYFDYWGQGVMVTVSS[not shown - about 450 residues with a human IgG1 Fc and changes]
light: B1 light
B11: 1H3-hIgG1-L6-hIL-2 (D20W/R38E) (other)
heavy: EVQLVESGGGLVQPGRSLKLSCAVSGFTFSDYAMAWVRQAPKKGLEWVATISYDGSRTYYRDSVKGRFTISRDNAKITLYLQMDSLRSEDTATYYCARHGSGYFDYWGQGVMVTVSS[not shown - about 450 residues with a human IgG1 Fc and changes]
light: B1 light
B12: 1H3-hIgG1-L6-hIL-2 (D20Y/R38E) (other)
heavy: EVQLVESGGGLVQPGRSLKLSCAVSGFTFSDYAMAWVRQAPKKGLEWVATISYDGSRTYYRDSVKGRFTISRDNAKITLYLQMDSLRSEDTATYYCARHGSGYFDYWGQGVMVTVSS[not shown - about 450 residues with a human IgG1 Fc and changes]
light: B1 light
B13: 1H3-hIgG1-L6-hIL-2 (D20R/R38E) (other)
heavy: EVQLVESGGGLVQPGRSLKLSCAVSGFTFSDYAMAWVRQAPKKGLEWVATISYDGSRTYYRDSVKGRFTISRDNAKITLYLQMDSLRSEDTATYYCARHGSGYFDYWGQGVMVTVSS[not shown - about 450 residues with a human IgG1 Fc and changes]
light: B1 light

molecular target: T1, high-affinity hIL-2 receptor (IL-2Rαβγ) on NK-92 cells (human, UniProt P01589 22-272; P14784 27-551; P31785 23-369); assay: cell-based or functional assay
T1 sequence 1: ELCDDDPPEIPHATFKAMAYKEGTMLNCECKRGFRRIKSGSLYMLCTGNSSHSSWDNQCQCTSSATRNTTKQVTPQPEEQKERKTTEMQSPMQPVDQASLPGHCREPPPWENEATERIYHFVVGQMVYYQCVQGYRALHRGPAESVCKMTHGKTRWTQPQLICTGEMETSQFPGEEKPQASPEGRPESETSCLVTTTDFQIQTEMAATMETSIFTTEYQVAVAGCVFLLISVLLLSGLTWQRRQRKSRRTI
T1 sequence 2: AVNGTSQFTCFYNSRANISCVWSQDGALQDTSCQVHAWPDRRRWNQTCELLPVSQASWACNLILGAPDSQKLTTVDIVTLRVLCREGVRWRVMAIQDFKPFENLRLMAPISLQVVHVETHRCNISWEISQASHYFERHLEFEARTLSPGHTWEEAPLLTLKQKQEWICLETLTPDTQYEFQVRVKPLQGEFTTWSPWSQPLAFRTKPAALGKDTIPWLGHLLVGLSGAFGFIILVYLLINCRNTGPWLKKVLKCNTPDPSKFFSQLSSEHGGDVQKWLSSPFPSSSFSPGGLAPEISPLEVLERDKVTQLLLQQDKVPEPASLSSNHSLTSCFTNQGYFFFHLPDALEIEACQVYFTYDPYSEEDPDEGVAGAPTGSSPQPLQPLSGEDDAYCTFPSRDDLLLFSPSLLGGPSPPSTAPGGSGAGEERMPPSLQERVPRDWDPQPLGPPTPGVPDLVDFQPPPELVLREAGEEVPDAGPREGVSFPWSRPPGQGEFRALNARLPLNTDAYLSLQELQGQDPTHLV
T1 sequence 3: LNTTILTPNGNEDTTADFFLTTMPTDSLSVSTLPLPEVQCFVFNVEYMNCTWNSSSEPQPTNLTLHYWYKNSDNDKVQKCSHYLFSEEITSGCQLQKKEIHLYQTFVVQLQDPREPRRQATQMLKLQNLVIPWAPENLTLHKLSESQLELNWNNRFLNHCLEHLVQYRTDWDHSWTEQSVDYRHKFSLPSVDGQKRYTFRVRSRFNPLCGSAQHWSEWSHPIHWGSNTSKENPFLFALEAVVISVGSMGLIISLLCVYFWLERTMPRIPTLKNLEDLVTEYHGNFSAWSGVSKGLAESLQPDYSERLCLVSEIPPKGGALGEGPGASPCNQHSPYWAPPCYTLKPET

B1 and B2 cannot be ordered by “Fold change from rhIL-2 (NK-92)” value: greater than 10000 fold for the first, greater than 10000 fold for the second.

Going from B3 to B4, the “Fold change from rhIL-2 (NK-92)” value falls from greater than 10000 fold to 1520 fold.

Going from B5 to B6, the “Fold change from rhIL-2 (NK-92)” value falls from 1290 fold to 524 fold.

Going from B7 to B8, the “Fold change from rhIL-2 (NK-92)” value rises from 77 fold to greater than 10000 fold.

B9 and B10 cannot be ordered by “Fold change from rhIL-2 (NK-92)” value: greater than 10000 fold for the first, greater than 10000 fold for the second.

B11 and B12 cannot be ordered by “Fold change from rhIL-2 (NK-92)” value: greater than 10000 fold for the first, greater than 10000 fold for the second.

For B13, the “Fold change from rhIL-2 (NK-92)” value was greater than 10000 fold.

molecular target: T2, intermediate-affinity hIL-2 receptor (IL-2Rβγ) on TF1+IL-2Rβ cells (human, UniProt P14784 27-551; P31785 23-369); assay: cell-based or functional assay
T2 sequence 1: T1 sequence 2
T2 sequence 2: T1 sequence 3

First: B1
Second: B2
The “Fold change from rhIL-2 (TF1 + IL-2Rβ)” value of the first is higher: 2610 fold for the first, 1780 fold for the second.

Compared with B3, B4 is lower in “Fold change from rhIL-2 (TF1 + IL-2Rβ)” value: 1850 fold for the first, 378 fold for the second.

Going from B5 to B6, the “Fold change from rhIL-2 (TF1 + IL-2Rβ)” value falls from 212 fold to 75 fold.

Going from B7 to B8, the “Fold change from rhIL-2 (TF1 + IL-2Rβ)” value rises from 12 fold to greater than 10000 fold.

B9 and B10 cannot be ordered by “Fold change from rhIL-2 (TF1 + IL-2Rβ)” value: greater than 10000 fold for the first, greater than 10000 fold for the second.

B11 and B13 cannot be ordered by “Fold change from rhIL-2 (TF1 + IL-2Rβ)” value: greater than 10000 fold for the first, greater than 10000 fold for the second.
